Experimental data taken from PubChem BioAssay AID1508624 (National Center for Advancing Translational Sciences (NCATS), 2021).
The whole screen tested about 48,000 compounds, of which about 120 (0.25%) were called active. Not shown: some 4% with an inconclusive outcome. Calls follow the shape of the dose curve; as a rule, active = well fitted activation curve with a large enough effect; inconclusive = small, poorly fitted or top-dose-only effect, or another doubt; inactive = no such curve, though single readings can be large or run the other way. This is one part of the list.

test: Primary qHTS for Identification of Small Molecule Activators of Huntingtin-Antisense Promoter Activity; conditions: HEK293 HTT-AS promoter firefly luciferase reporter (activity 0% = vehicle and -100% = no light), 24 h; series mostly up to 57.5 µM; activity change, positive = activation: at the top concentration; also: nearly all actives have a fitted effect of over 55% in size
Summary of the method: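 HEK293 Fluc reporter, 2,500 cells/well, 24 h pre-culture; cpds up to 57.5 uM final, 24 h 37 degrees C; Dual-Glo, 10 min RT; normalized vehicle = 0%, zero RLU = -100%.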

Activity change, positive = activation, inactive:
O=C(c1ccc(F)cc1)c1cn(Cc2ccccc2)c2cc3c(cc2c1=O)OCO3 -3.61%
COc1cc(OC)cc(C(=O)Nc2ccc(-c3nc4ccccc4s3)cc2C)c1 -10.4%
Cc1cc(C)n(-c2nc(C)c(C)c(=O)n2CC(=O)Nc2ccc([N+](=O)[O-])cc2)n1 -10.9%
Nc1nc2c(ncn2COC(CO)CO)c(=O)[nH]1
CCOC(=O)c1ccc(NC(=O)Cn2cc(C(=O)C3CC3)c3ccccc32)cc1 -28.1%
C[n+]1c2cc(N)ccc2cc2ccc(N)cc21 (tested in a mixture with another compound) -39.2%
COc1ccccc1CNC(=O)CCc1c(C)c2cc3c(C)c(C)oc3cc2oc1=O 2.76%
COc1ccc(CCNC(=O)c2ccc3c(c2)N(Cc2ccc(F)cc2)C(=O)c2ccccc2S3(=O)=O)cc1OC -3.96%
Cc1ccccc1Nc1c(-c2c(F)cccc2Cl)nc2ccc(Br)cn12 -2.6%
Cc1csc(-c2nnc(Nc3ccc(Oc4ncccc4-c4ccnc(N)n4)cc3)c3ccccc23)c1 -27.1%
Cc1c(C(=O)Nc2cccc(C(F)(F)F)c2)sc2nc[nH]c(=O)c12 -10.5%
Cc1ccc(-n2ncc3c(NCCCN4CCOCC4)ncnc32)cc1C -47.6%
CCOC(=O)c1ccc(NC(=O)CCCn2c(=O)c3cccn3c3ccccc32)cc1 -5.46%
COCc1nnc(NC(=O)c2cc(OC)c(OC)c(OC)c2)s1 12.2%
Cc1ccc(NC(=O)C2CCCN(S(=O)(=O)c3c(C)n[nH]c3C)C2)c(C)c1 (configuration not stated) -13.4%
COc1ccc(OC)c(/C=C/c2nc3ccccc3c(=O)n2-c2ccc(F)c(Cl)c2)c1 -6.37%
COc1ccc(C(=O)/C=C/c2cn(CC(O)CN3CCc4ccccc43)c3ccccc23)cc1OC (configuration not stated) -41.6%
CCC(C(=O)Nc1cc(C)ccc1C)n1c(=O)c(C(F)(F)F)nc2ccccc21 (configuration not stated) -9.12%
COc1cccc(CNS(=O)(=O)c2cnc(N)nc2)c1 -11.9%
O=C(COc1ccc(F)cc1)Nc1nnc(S(=O)(=O)N2CCCC2)s1 -5.39%
COc1ccc(NC(=O)c2nnn(Cc3nc(-c4cc(OC)c(OC)c(OC)c4)oc3C)c2C)cc1Cl -14.3%
COc1ccccc1CNC(=O)c1ccc2[nH]c(C)c(C)c2c1 1.47%
COc1ccc(OC)c(NS(=O)(=O)c2ccc(-n3cccn3)cc2)c1 -33.4%
CCCCNC(=O)C(CC)Sc1nc2ccccc2c(=O)n1Cc1ccco1 (configuration not stated) -10.5%
COCCCNC(=O)Cn1c(=O)n(-c2ccc(C)c(C)c2)c(=O)c2c3c(sc21)CCCCC3 -10.8%
COCCNC(=O)c1sc2ncccc2c1-n1c(C)ccc1C 14.4%
CCC(C)n1c(=O)c2sccc2n2c(CCCC(=O)NCc3ccccc3Cl)nnc12 (configuration not stated) -6.36%
